# ± gives the standard deviation of the averaged measurements. This is one part of the list.
# System: PfAP2-LT AP2 domain (GST-tagged)
# Experiment: gcPBM binding intensity (ln(normalized median fluorescence intensity)); higher = stronger DNA binding
# How it was run: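 Binding of GST-tagged P. falciparum DNA-binding domains, expressed in E. coli and used at about 25 μg on average, was carried out for 1 h in 1× PBS containing 1% milk, 0.2 mg/ml BSA, 0.5% salmon testes DNA and 0.03% Triton X-100. The target was an Agilent 4 × 180k array of primer-extended double-stranded 36-bp intergenic genomic probes plus negative controls, read with Alexa488 anti-GST antibody at 488 nm. Binding intensity is the highest Masliner-normalised natural-log median intensity across replicate spots of either probe orientation.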
row,Sequence,gcPBM binding intensity (ln)
1,ATATAATATTTCATGTGGACACATTTTATGATTGTA [XGTACX_site8770],8.85 ± 0.39
2,ACACATATATATTATTATTATATAATATATATATAT [CACACA_negctrl_site1545],8.78 ± 0.32
3,AATCAAAATTAATTAACACACAATTTTAATATTCTT [CACACA_site2063],8.64 ± 0.48
4,ATAGTAAACGAAATAAAAAGATTAGCATAATATCCT [CACACA_negctrl_site1730],8.88 ± 0.46
5,ATTGTTTATATTGATTGTACTCATTTTTTTTTTATT [XGTACX_site1946],9.03 ± 0.38
6,ATATATTATATATATTACAACTTAAGAATATACATA [TGCATGCA_negctrl_site371],8.45 ± 0.3
7,TCCTGTGATTATATAACACACATTATTGCTTATAAG [CACACA_site1518],8.93 ± 0.31
8,ATTATATATATATATACACACACACCCTAAAAATAT [CACACA_site8463],9.8 ± 0.014
9,ATATATTGAAAAAAATGTACGTATTTTTTTATGTTA [XGTACX_site4654],8.63 ± 0.36
10,TAAGCTTGTAACAGTTTACACACTAATATTTATAAA [CACACA_site3907],8.57 ± 0.39
11,AATAAATATATTACATATATGTGTAGTATTTTTTTA [TGCATGCA_negctrl_site268],8.61 ± 0.4
12,TTATTAAATTTTTTTTGTACTTATATATATATATAT [XGTACX_site2443],8.85 ± 0.52
13,ATTATTATATAGTGTGCATGCAATATTAATAAAACC [TGCATGCA_site245],9.36 ± 0.23
14,TATGAATGTATATGTTGTACATATAAATATTTATAT [XGTACX_site1146],8.81 ± 0.45
15,GTTGTTATATAAAATTGTACATAAAAAACAAAATAT [XGTACX_site5313],8.69 ± 0.42
16,TTTTCTTTCTTTCAAACACACATTAATTTTATTCAT [CACACA_site2734],8.75 ± 0.58
17,TAAAATTATTAATGAGTGCATTATAAAATCTATATA [GTGCAC_site9493],8.38 ± 0.46
18,ATAAATGGCTATAGCATATTGTATATGTGATTATAA [CACACA_negctrl_site948],8.9 ± 0.49
19,ATTATACACCCGCGCACACACAACAAAAAAAAAAAA [CACACA_site5871],9.67 ± 0.61
20,ATGCAATTATATAGTAGTACAAATTTATAAATATAC [XGTACX_site4869],8.94 ± 0.37
21,TCATATATTATATATTGTACAAAATAATAAGTATTT [XGTACX_site3987],8.58 ± 0.47
22,ATAATTGTTTAAAGGTGTACAATACATATATTTTAA [XGTACX_site3648],8.64 ± 0.5

row,Sequence,gcPBM binding intensity (ln)
1,ATATATATATATATGGGTACGTAAAAATATAATAAA [XGTACX_site4036],9.12 ± 0.46
2,ATGAAAATATTTAAAAGTACAGAAATATAAAACCTT [XGTACX_site403],8.74 ± 0.4
3,CACAAATATACAAATACACACAAATATACACATATA [CACACA_site7176],9.4 ± 0.38
4,TATAAAATATAAATAAATAAATAAATATATATATAT [TGCATGCA_negctrl_site448],8.71 ± 0.42
5,AAAATATTTATCATTTGTACTTAGATGTAAACTTGA [XGTACX_site1778],8.46 ± 0.42
6,TATTTTATACACTTGCTAAAACATTAACACATATGT [CACACA_negctrl_site1818],8.87 ± 0.64
7,AAAAAACAAAAACACACGCACACAAAAAAAAAAAAA [CACACA_site802],9.4 ± 0.33
8,TATATATATATATATTGTACTAAATCATTTAAATGA [XGTACX_site8016],8.89 ± 0.16
9,ACCTATATAAATTATACACACAAATATAAATATATA [CACACA_site2843],8.93 ± 0.41
10,AATTATATATAACGTAGTACATATTATAAACCACGT [XGTACX_site8816],8.96 ± 0.36
11,TATAATAATAATGATAGTACGTATGAGTTCAAGAAA [XGTACX_site4918],8.9 ± 0.52
12,TTGTTATTCCACCGTTGTACAGTTATATACATACAC [XGTACX_site8296],9.05 ± 0.52
13,TGTCATAAAACCGTTTGTACATATTAATAGACACCT [XGTACX_site4520],8.77 ± 0.42
14,ATATTCCTTTAATATTGTACTATTTTTTTCCTTATA [XGTACX_site8659],8.81 ± 0.51
15,TATGTACAAATATGTACACACACACCGATATATATA [CACACA_site4487],9.56 ± 0.26
16,ACTAATAACAAAAGCTTGCACTTTTTTTTTCCTAAT,8.56 ± 0.52
17,TGTATCCACATATGTACACACATATATCTGTATATG [CACACA_site5668],9.26 ± 0.37
18,TATAATTTTCTTAGTAGTACATTTTAAATCTACTAC [XGTACX_site2621],8.59 ± 0.57
19,AAAAAAAAAAAAAAAAGTACAAAAATTATATTAAGA [XGTACX_site4255],8.43 ± 0.64
20,ATATAAGATTACAAAAATTATGTGTAAATATTTAAT [XGTACX_negctrl_site448],8.71 ± 0.42
21,AAAAAAATTACATATCCATTTTAACATAATAAATAG [GTGCAC_negctrl_site618],8.33 ± 0.45
22,TTTTTGCAAAAAGAAATAATTTTATTTTAGTTCGGA [CACACA_negctrl_site1718],8.19 ± 0.45

row,Sequence,gcPBM binding intensity (ln)
1,ATCTATGGGTAGTATACACACTGTATATTTAGGAAT [CACACA_site5569],8.88 ± 0.49
2,ATTCTATTCTCCTTCACACACAAAAATATTTCATCA [CACACA_site2360],9.16 ± 0.52
3,TTACGAATAAAACAGTGTACATTGAATTTCTATGAG [XGTACX_site4771],8.66 ± 0.47
4,TCCATGCAGAAACACACACACAAAAAAAAATTCTTT [CACACA_site4099],9.56 ± 0.45
5,TCTTACAAAAAAAAAAAAAAATAAAATAAAATATAT [CACACA_negctrl_site1575],8.35 ± 0.47
6,AAGGAGATAATTTATTGTACATATAATAAATGAACA [XGTACX_site6252],8.72 ± 0.51
7,TTAATATTATGTTAAAGTACTTTATATATATATAAT [XGTACX_site2646],8.57 ± 0.3
8,ATCTTATATATACGTTGTACTACAGGATATGTCATA [XGTACX_site5734],8.95 ± 0.38
9,TGTATATTATAAGATAGTACATATATATAATATATA [XGTACX_site1297],8.57 ± 0.36
10,TTCATTTACCCTTATTAACACACAAAATATAATACG [CACACA_site8821],8.83 ± 0.34
11,ATAAATATCATATATATACACACGTAATACATAATA [CACACA_site4001],9.03 ± 0.35
12,AGTGAGAAATACATAATAATACATTATGTGCATATT [XGTACX_negctrl_site247],8.89 ± 0.49
13,TTACTTGTTTATTTTATTTTTTTTTTTTTTTTGTTA [TGCATGCA_negctrl_site266],8.45 ± 0.57
14,GTACACATATATATATATATATATATATATATATTA [CACACA_negctrl_site1580],9.82 ± 0.3
15,AAGAATATTTTTTTCTGTACATATAATTTATATACG [XGTACX_site5801],8.6 ± 0.59
16,ATATTAAGAATATATACACACATAAGTATTGTATAT [CACACA_site6110],8.88 ± 0.42
17,ATAAAATAAAATAAATGTACACGAAAAAAAATATTT [XGTACX_site3747],8.91 ± 0.49
18,TATTCGTGCAATAGTAGTACACTTATAAATTATTCT [XGTACX_site4899],8.76 ± 0.4
19,GTTGGTAGATTTATTTGTACATATGTATCATATTAT [XGTACX_site7135],9.07 ± 0.35
20,AAAAATTTATTTTGTTTTTTAAGATTTTTTTTTTTT [CACACA_negctrl_site1210],7.91 ± 0.56
21,AGCAAATACAAACACACACACACATATACATATATA [CACACA_site3497],10.1 ± 0.26
22,TAATTACAAAAACATACACACAAAAAAAAAAAAAAA [CACACA_site3782],8.87 ± 0.45

row,Sequence,gcPBM binding intensity (ln)
1,ATTCTAAATATCAGTGCACACATTTCTACGCAAAGT [CACACA_site474],9.12 ± 0.42
2,ACATACATATATATACGTACATATATATTTATATAT [XGTACX_site5799],9.07 ± 0.35
3,AAAAAACAGACATACACACACACACCCATATATATA [CACACA_site3392],10.4 ± 0.21
4,TTTGATAAAATTGATATCCTATAATTATATAAATAA [GTGCAC_negctrl_site317],8.17 ± 0.4
5,GATAAAATAAAAGTGGGTACTTAAATATATATATAA [XGTACX_site8457],8.69 ± 0.62
6,TACAATTTGATATATACACACAAATAAATTATGCTT [CACACA_site6534],8.76 ± 0.42
7,AAAAGTACAATATATATGTATGTGTATAGAATGGTT [TGCATGCA_negctrl_site76],9.19 ± 0.39
8,ATAATATTATACTTTGCACACATCTGAAATGACATA [CACACA_site3952],9.12 ± 0.3
9,AAAGAATTTAAATATTGTACGCAATATATAAAAAAA [XGTACX_site7616],8.57 ± 0.54
10,TAATATTATTATTTTACACACTTTTTTCCTTTTATC [CACACA_site2457],8.98 ± 0.47
11,TTCTATATATATATAGACAAACGATAAAATAAAAAA [GTGCAC_negctrl_site142],8.48 ± 0.46
12,TAATAATAGTGAGAGTGTACTTTAAATAAAATATAT [XGTACX_site2850],8.76 ± 0.56
13,GATGTTCATCACTACACACACAAAGAAATATAAATA [CACACA_site7294],9.22 ± 0.38
14,TACCCAAAGTTACATACACACTAATATTTACACCAT [CACACA_site4709],9.09 ± 0.29
15,ATATGAAGTTATATAGTGCACATGTACAACCAAATC [GTGCAC_site9974],9.19 ± 0.35
16,AGAAAAGAAATTAGTTGTACTCTGATGAATTATCCT [XGTACX_site6284],8.62 ± 0.54
17,TATTTATTATATAAATGTACATAATATATGTATGTC [XGTACX_site2815],8.77 ± 0.48
18,AAAAAAAAAAAAAGTACACACTTTTGCGTACAAGTA [CACACA_site5672],8.79 ± 0.47
19,TATATCATAAAAAATTGTACATATATATATTATATA [XGTACX_site6726],8.44 ± 0.41
20,TGATGGGACATAAATATTGAGATGATCATAAGATAA [TGCATGCA_negctrl_site276],8.89 ± 0.6
21,AAAGATAATATATGCACACATATAAATATATAAATA [CACACA_site3477],9.07 ± 0.43

# Source: the supplement of paper PMC11417369
